# The other results are listed elsewhere or left out. The full chains were built here from the parent and the listed change. Values near 0.05 are background.
# B1: TEV protease; numbered along this chain (parent)
# chain: MGESLFKGPRDYNPISSSICHLTNESDGHTTSLYGIGFGPFIITNKHLFRRNNGTLVVQSLHGVFKVKDTTTLQQHLVDGRDMIIIRMPKDFPPFPQKLKFREPQREERICLVTTNFQTKSMSSMVSDTSCTFPSGDGIFWKHWIQTKDGQCGSPLVSTRDGFIVGIHSASNFTNTNNYFTSVPKNFMELLTNQEAQQWVSGWRLNADSVLWGGHKVFMVKPEEPFQPVKEATQL
# Variants of: B1
# Assay: raw area under fraction-flipped curve 0-4 h after induction (AUC4h, not background-subtracted), DNA-recorder readout of cleavage of the substrate (dimensionless); higher = more cleavage of the substrate by the protease variant
# Settings: temperature: 34 °C; time window: 0-4 h after rhamnose induction
# Procedure: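 In vivo DNA recorder in E. coli TOP10(DE3) ΔrhaA at 34 °C. Each TEVp single-site mutant (parent TEVp 0) is paired with a single-site variant of the 7-mer TEVs (canonical ENLYFQ|S). The substrate sits between flexible linkers in a Bxb1-sfGFP-TEVs-SsrA fusion, so cleavage stabilises Bxb1 and speeds flipping of a recombination array, read by NGS. The value is the raw area under the fraction-flipped curve over 0-4 h after rhamnose induction (AUC4h), with ≥20 reads per time point. It is not background-subtracted; inactive controls average about 0.047.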
# 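Note: Bxb1 expression induced with 0.2% (w/v) L-rhamnose at OD600 near 0.5, cultures sampled hourly, flipped fraction per protease–substrate barcode pair counted by paired-end Illumina sequencing.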
variant,measurement,value
D149A,area with substrate ENCYFQS,0.0557
same,area with substrate ENDYFQS,0.0621
same,area with substrate ENEYFQS,0.0627
same,area with substrate ENHYFQS,0.0343
same,area with substrate ENIYFQS,0.096
same,area with substrate ENKYFQS,0.0652
same,area with substrate ENNYFQS,0.0577
same,area with substrate ENQYFQS,0.0715
same,area with substrate ENRYFQS,0.0801
same,area with substrate ENTYFQS,0.0559
P225Y,area with substrate ENCYFQS,0.0799
same,area with substrate ENDYFQS,0.0596
same,area with substrate ENEYFQS,0.0639
same,area with substrate ENFYFQS,0.0527
same,area with substrate ENKYFQS,0.0797
same,area with substrate ENNYFQS,0.0571
same,area with substrate ENQYFQS,0.0568
same,area with substrate ENRYFQS,0.0811
same,area with substrate ENSYFQS,0.0032
same,area with substrate ENVYFQS,0.0725
same,area with substrate ENYYFQS,0.0515
F226P,area with substrate ENCYFQS,0.0669
same,area with substrate ENGYFQS,0.0564
same,area with substrate ENMYFQS,0.0645
same,area with substrate ENNYFQS,0.0693
same,area with substrate ENRYFQS,0.0582
same,area with substrate ENSYFQS,0.0821
same,area with substrate ENTYFQS,0.0837
L191W,area with substrate ENCYFQS,0.0623
same,area with substrate ENDYFQS,0.0634
same,area with substrate ENGYFQS,0.0707
same,area with substrate ENMYFQS,0.0549
same,area with substrate ENQYFQS,0.0664
same,area with substrate ENRYFQS,0.0527
same,area with substrate ENSYFQS,0.0784
same,area with substrate ENVYFQS,0.0603
same,area with substrate ENYYFQS,0.0558
H143E,area with substrate ENCYFQS,0.0552
same,area with substrate ENDYFQS,0.0549
same,area with substrate ENEYFQS,0.0557
same,area with substrate ENHYFQS,0.055
same,area with substrate ENIYFQS,0.055
same,area with substrate ENMYFQS,0.0361
same,area with substrate ENPYFQS,0.0676
same,area with substrate ENQYFQS,0.0591
same,area with substrate ENSYFQS,0.0547
same,area with substrate ENTYFQS,0.0494
same,area with substrate ENVYFQS,0.0593
N177F,area with substrate ENAYFQS,0.0532
same,area with substrate ENCYFQS,0.0692
same,area with substrate ENDYFQS,0.0764
same,area with substrate ENFYFQS,0.0692
same,area with substrate ENGYFQS,0.061
same,area with substrate ENHYFQS,0.0662
same,area with substrate ENIYFQS,0.0631
same,area with substrate ENKYFQS,0.0808
same,area with substrate ENMYFQS,0.0697
same,area with substrate ENNYFQS,0.0612
same,area with substrate ENPYFQS,0.0651
same,area with substrate ENQYFQS,0.0585
same,area with substrate ENRYFQS,0.0599
same,area with substrate ENSYFQS,0.066
same,area with substrate ENTYFQS,0.0647
same,area with substrate ENVYFQS,0.0734
K230R,area with substrate ENCYFQS,0.0494
same,area with substrate ENDYFQS,0.0385
same,area with substrate ENGYFQS,0.0388
same,area with substrate ENHYFQS,0.0305
same,area with substrate ENNYFQS,0.0788
same,area with substrate ENQYFQS,0.0565
same,area with substrate ENSYFQS,0.0672
same,area with substrate ENTYFQS,0.0623
same,area with substrate ENYYFQS,0.0375
H62Q,area with substrate ENCYFQS,0.0598
same,area with substrate ENDYFQS,0.0636
same,area with substrate ENFYFQS,0.0622
same,area with substrate ENGYFQS,0.0638
same,area with substrate ENNYFQS,0.06
same,area with substrate ENPYFQS,0.0575
same,area with substrate ENRYFQS,0.0497
same,area with substrate ENSYFQS,0.0532
S130F,area with substrate ENCYFQS,0.0672
same,area with substrate ENDYFQS,0.0461
same,area with substrate ENGYFQS,0.0452
same,area with substrate ENHYFQS,0.0682
same,area with substrate ENNYFQS,0.051
same,area with substrate ENQYFQS,0.059
same,area with substrate ENSYFQS,0.0662
same,area with substrate ENTYFQS,0.0533
same,area with substrate ENWYFQS,0.0643
V220K,area with substrate ENAYFQS,0.0457
same,area with substrate ENDYFQS,0.066
same,area with substrate ENEYFQS,0.0681
same,area with substrate ENFYFQS,0.0564
same,area with substrate ENIYFQS,0.112
same,area with substrate ENKYFQS,0.0784
same,area with substrate ENSYFQS,0.0843
same,area with substrate ENTYFQS,0.0614
same,area with substrate ENVYFQS,0.0884
same,area with substrate ENYYFQS,0.04
P94H,area with substrate ENCYFQS,0.0702
same,area with substrate ENFYFQS,0.0706
same,area with substrate ENGYFQS,0.0479
same,area with substrate ENHYFQS,0.0537
same,area with substrate ENKYFQS,0.0574
same,area with substrate ENMYFQS,0.0951
same,area with substrate ENRYFQS,0.0619
same,area with substrate ENSYFQS,0.105
T181N,area with substrate ENCYFQS,0.0622
same,area with substrate ENDYFQS,0.0623
same,area with substrate ENIYFQS,0.0854
same,area with substrate ENQYFQS,0.0786
same,area with substrate ENRYFQS,0.076
T181Q,area with substrate ENCYFQS,0.0753
same,area with substrate ENDYFQS,0.0627
same,area with substrate ENFYFQS,0.0634
same,area with substrate ENKYFQS,0.0808
same,area with substrate ENSYFQS,0.0518
same,area with substrate ENTYFQS,0.0544
S18D,area with substrate ENCYFQS,0.057
same,area with substrate ENEYFQS,0.0737
same,area with substrate ENIYFQS,0.105
same,area with substrate ENMYFQS,0.0751
same,area with substrate ENQYFQS,0.0509
same,area with substrate ENSYFQS,0.0495
same,area with substrate ENTYFQS,0.044
same,area with substrate ENVYFQS,0.063
same,area with substrate ENYYFQS,0.0618
S169V,area with substrate ENCYFQS,0.055
same,area with substrate ENDYFQS,0.0512
same,area with substrate ENEYFQS,0.0678
same,area with substrate ENFYFQS,0.0644
same,area with substrate ENHYFQS,0.048
same,area with substrate ENIYFQS,0.0623
same,area with substrate ENNYFQS,0.0611
same,area with substrate ENQYFQS,0.0713
same,area with substrate ENSYFQS,0.0379
same,area with substrate ENTYFQS,0.0664
D27H,area with substrate ENCYFQS,0.0807
same,area with substrate ENDYFQS,0.0636
same,area with substrate ENFYFQS,0.0538
same,area with substrate ENPYFQS,0.0556
same,area with substrate ENQYFQS,0.0636
same,area with substrate ENSYFQS,0.0538
same,area with substrate ENTYFQS,0.0676
same,area with substrate ENYYFQS,0.0574
V126D,area with substrate ENCYFQS,0.0693
same,area with substrate ENGYFQS,0.0519
same,area with substrate ENIYFQS,0.103
same,area with substrate ENKYFQS,0.0597
same,area with substrate ENQYFQS,0.0622
same,area with substrate ENRYFQS,0.0419
same,area with substrate ENSYFQS,0.0608
same,area with substrate ENWYFQS,0.0352
same,area with substrate ENYYFQS,0.0584
A170N,area with substrate ENCYFQS,0.058
same,area with substrate ENEYFQS,0.0721
same,area with substrate ENFYFQS,0.0422
same,area with substrate ENKYFQS,0.0629
same,area with substrate ENNYFQS,0.0655
same,area with substrate ENSYFQS,0.0486
same,area with substrate ENTYFQS,0.0578
same,area with substrate ENVYFQS,0.0925
same,area with substrate ENYYFQS,0.0704
G150S,area with substrate ENCYFQS,0.0622
same,area with substrate ENEYFQS,0.0652
same,area with substrate ENHYFQS,0.0648
same,area with substrate ENKYFQS,0.0563
same,area with substrate ENNYFQS,0.0555
same,area with substrate ENQYFQS,0.0599
same,area with substrate ENSYFQS,0.0672
same,area with substrate ENTYFQS,0.0579

# Source: the supplement of paper PMC12217912
